We go through one molecule from US20210317204A1 (ALMAC DISCOVERY, published 2021).

Test [1] has as its target T1, human EGFR on the surface of human cancer cell lines (human).
T1 construct: whole, on cells; also called cell surface EGFR
The test can be described thus: flow cytometry on A549 at 4 C and 37 C, PE-anti-Myc; signal not split between ROR1 and EGFR.

Test [2] concerns the target T2, human ROR1 on the surface of human cancer cell lines (human, UniProt Q01973).
T2 construct: whole, on cells; the cell line is named under assay; also called cell surface ROR1
Described as above.

B1: 7C12 P3A1 QASGA (bispecific antibody)
single chain: AVQLVESGGGSVQAGGSLRLT[about 100 residues cut from this listing]WGQGTQVTVSSGGGGSGGGGSGGGGSGGGGSGGGGSTRVDQTPRTATKETGESLTINCVLTDTSYGLYSTSWFRKNPGTTDWERMSIGGRYVESVNKGAKSFSLRIKDLTVADSATYYCKAREARHPWLRQWYDGAGTVLTVNQASGAHHHHHHGAEFEQKLISEEDL
notes: also called 7C12-P3A1 QASGA his myc
Take B1: the binding result in test [1] and in test [2] was “binds” in each case.
